Source: PubChem BioAssay AID1745853 (National Center for Advancing Translational Sciences (NCATS), 2022)
The list shows a part of the results. These are further read-outs of the screen, such as a control signal, another cell line or another target. No call is given for them.

Assays:
Assay in all cases: Primary Screen for Target Class Profiling of Small Molecule Inhibitors of Methyltransferases
[1] = target: Glycine N-methyltransferase (Homo sapiens) (UniProt Q14749); conditions: purified enzyme, MTase-Glo SAH luminescence; measured here: GNMT inhibition; at 40 µM; stronger effect = lower value
Source text: (§1) PI: Matthew D. Hall Ph.D. and Quinlin M. Hanson Ph.D.
(§2) National Center for Advancing Translational Sciences (NCATS)
(§3) National Institute of Health (NIH), Rockville, MD
(§4) Target class profiling (TCP) is a chemical biology approach amenable to investigating understudied biological targets. TCP is achieved by developing a generalizable assay platform and applying it to screen a curated set of compound libraries against representative members of a target class. Small molecule methyltransferases (SMMTase) are a subclass of methyltransferase that act on metabolites to modulate signaling pathways, metabolize xenobiotics, or balance the available methyl pool. We screened four curated libraries totaling 27,574 unique compounds against the SMMTases nicotinamide N-methyltransferase (NNMT), phenylethanolamine N-methyltransferase (PNMT), histamine N-methyltransferase (HNMT), glycine N-methyltransferase (GNMT), catechol O-methyltransferase (COMT), and guanidinoacetate N-methyltransferase (GAMT). The data generated by this TCP can be leveraged for informed tool molecule development. For example, in the associated publication we identified a chemotype of HNMT-selective inhibitors. Additionally, we identified a putative SMMTase-selective inhibitor with potential as a tool molecule for studying broader methyltransferase biology.
(§5) High-through put screening assays were developed at the National Center for Advancing Translational Science (NCATS) for the enzymes NNMT, PNMT, HNMT, GNMT, COMT, and GAMT. Enzymatic activity was measured as a function of SAM cofactor conversion using the MTase Glo kit (Promega) for all enzymes. All assays were performed in 1536-well format with substrates and SAM concentrations at KM values. Enzyme concentration and assay timing were optimized for 10-20% SAM conversion. Initial screening of 27,574 compounds was done as single-point assays using the highest compound concentration (40 uM). […] These compounds were replated in 11-point dose response and assayed against NNMT, PNMT, HNMT, GNMT, COMT, GAMT, and a counter-assay. The IC50 and efficacy (maximal response) values were determined for each dose-response curve. These values are also accounted for in the area under the curve (AUC) values.
(§6) PROTOCOL TABLE (as described by Inglese J, Shamu CE and Guy RK. 2007)
(§7) SEQUENCE No. (e.g., 1, 2, 3, etc.); […] (e.g., Cells, Incubation, Reagent, etc.); VALUE; DESCRIPTION.
(§8) 1; Reagent; 2 uL; SMMTase Enzyme (2x) in reaction buffer, columns 1- 48.
(§9) 2; Reagent; 1 uL; SAM (4x) in reaction buffer, columns 1-48.
(§10) 3; Controls; 23 nL; DMSO in column 4; sinefungin in DMSO (0 uM - 40 uM) in 7-point 1:2 dilution series (n = 2) in column 2.
(§11) 4; Compounds; 23 nL; Columns 5-48.
(§12) 5; Reagent; 1 uL; Substrate (4x) in reaction buffer, columns 2-48.
(§13) 6; Time; 20-30 min; Incubation.
(§14) 7; Reagent; 1 uL; MTase-Glo reagent (5X), columns 1-48.
(§15) 8; Time; 30 min; Incubation.
(§16) 9; Reagent; 5 uL; MTase-Glo Detection reagent, columns 1-48.
(§17) 10; Time; 30 min; Incubation, luminescence evolution.
(§18) 11; Detection; Luminescence; ViewLux uHTS Microplate Imager (PerkinElmer).
(§19) NOTES (numbers refer to Sequence numbers above)
(§20) 1, 2, 5. White Medium Binding Greiner 1536-well plates (Cat #789175-F, Greiner Bio-One, Monroe, NC); Reaction buffer: 50 mM Tris, pH 8.0, 3 mM MgCl2, 1 mM EDTA, 50 mM NaCl, 1 mM DTT, and 0.1 mg/mL BSA. Evaporation was prevented by covering assay plates with metal lids containing holes to allow gas diffusion.
(§21) 1. Six SMMTase were profiled: HNMT, GNMT, PNMT, COMT, NNMT, GAMT
(§22) 5. The corresponding substrate was used for each enzyme: HNMT - 5.3 uM Histamine; GNMT - >500 uM Glycine; PNMT - 16.2 uM Norephinephrine; COMT - 13.7 uM Norephinephrine; NNMT - 3.8 uM Nicotinamide; GAMT - 2.5 uM Guanidinoacetate.6, 8, 10. Room temperature
(§23) 6. Final reaction conditions: 10 nM COMT, 5 uM SAM, 15 uM norepinephrine, 50 mM Tris, pH 8.0, 3 mM MgCl2, 1 mM EDTA, 50 mM NaCl, 1 mM DTT, and 0.1 mg/mL BSA; refer to tables 2 and S1 for specific timing.
8. […]

[2] = target: Guanidinoacetate N-methyltransferase (Homo sapiens) (UniProt Q14353); conditions: purified enzyme, MTase-Glo SAH luminescence; measured here: GAMT inhibition; at 40 µM; stronger effect = lower value
Source text: as §1, §2, §3, §4, §5, §6, §7, §8, §9, §10, §11, §12, §13, §14, §15, §16, §17, §18, §19, §20, §21, §22, §23
8. […]

[3] = target: Histamine N-methyltransferase (Homo sapiens) (UniProt P50135); conditions: purified enzyme, MTase-Glo SAH luminescence; measured here: HNMT inhibition; at 40 µM; stronger effect = lower value
Source text: as §1, §2, §3, §4, §5, §6, §7, §8, §9, §10, §11, §12, §13, §14, §15, §16, §17, §18, §19, §20, §21, §22, §23
8. […]

[4] = target: Nicotinamide N-methyltransferase (Homo sapiens) (UniProt P40261); conditions: purified enzyme, MTase-Glo SAH luminescence; measured here: NNMT inhibition; at 40 µM; stronger effect = lower value
Source text: as §1, §2, §3, §4, §5, §6, §7, §8, §9, §10, §11, §12, §13, §14, §15, §16, §17, §18, §19, §20, §21, §22, §23
8. […]

[5] = target: Phenylethanolamine N-methyltransferase (Homo sapiens) (UniProt P11086); conditions: purified enzyme, MTase-Glo SAH luminescence; measured here: PNMT inhibition; at 40 µM; stronger effect = lower value
Source text: as §1, §2, §3, §4, §5, §6, §7, §8, §9, §10, §11, §12, §13, §14, §15, §16, §17, §18, §19, §20, §21, §22, §23
8. […]
% is set by controls: 0 for no effect and ±100 for the full control effect.

SMILES | activity change, negative = inhibition [1] | activity change, negative = inhibition [2] | activity change, negative = inhibition [3] | activity change, negative = inhibition [4] | activity change, negative = inhibition [5]
CCOc1nc2cccc(C(=O)O)c2n1Cc1ccc(-c2ccccc2-c2noc(=O)[nH]2)cc1 | -7.81% | -8.9% | 5.34% | -19.6% | -2.84%
O=C(NCc1ccccc1)c1ccc2c(=O)nc3c(-c4ccc(Cl)cc4)n[nH]n3c2c1 | -9.28% | -1.19% | -0.94% | -15.4% | -4.78%
CCOC(=O)c1cc2n(n1)CC(C)(C(=O)NC1CCCC1)N(c1cc(C)cc(C)c1)C2=O (stereo not given) | 2.4% | 0.487% | 3.6% | 5.72% | 2.8%
CCOC(=O)c1cc2n(n1)CC(C)(C(=O)NC1CCCCC1)N(c1cccc(Cl)c1C)C2=O (stereo not given) | -0.814% | 4.72% | -4.6% | 3.88% | 1.24%
O=C(CC[C@@H]1CNC(=O)[C@@H]2C[C@H](NCc3ccccn3)CN12)NCc1ccccc1 | -12% | -8.52% | -4.21% | -14.3% | -13.3%
COc1cccc2c1OCCCN(Cc1cn(-c3ccccc3)nn1)C2 | -1.98% | -0.56% | -2.74% | -0.237% | -0.629%
COc1ccc(CN2CCCC3(Cc4ccccc4CNC3=O)C2)c(OC)n1 (stereo not given) | -4.02% | -4.31% | -12.8% | -8.68% | -5.05%
CCC(CC)NC(=O)[C@@H]1COCC(=O)N1Cc1ccc(OC)cc1OC | -1.35% | 0.692% | 1.05% | -2.2% | -0.224%
COCCOC(=O)C1=C(C)NC(C)=C(C(=O)OC/C=C/c2ccccc2)C1c1cccc([N+](=O)[O-])c1 (stereo not given) | -3.1% | 10.5% | 8.83% | -10.4% | -1.38%
O=C(NCCCc1ccccc1)C1CCC(CNS(=O)(=O)c2cccc3nsnc23)CC1 (stereo not given) | -7.5% | -8.71% | -4.15% | -28.4% | -12.6%
Cc1cccc(NC(=O)CSc2nnc3[nH]c(=O)c(C(C)(C)C)nn23)c1 | 9.68% | 1.85% | 6.08% | 0.657% | -0.48%
C=C(C)C1CCC(C)C12CC(O)C1(C)OC1C2OC(=O)C(N)CCC(=O)O (stereo not given) | 1.74% | -0.081% | 11.3% | -12.1% | -8.62%
O=C(Cn1nc2nc(Nc3ccc(F)cc3)ccn2c1=O)Nc1cc(F)cc(F)c1 | 0.653% | 0% | 5.04% | -5.55% | 3.16%
COc1ccccc1CNC(=O)C1(C)Cn2nc(-c3ccccc3)cc2C(=O)N1c1cccc(Cl)c1C (stereo not given) | 7.4% | 0% | 6.54% | 9.38% | 2.99%
COCCNC(=O)N1CCCC(CNC(=O)c2cccc3ccccc23)C1 (stereo not given) | -5.7% | -5.22% | -0.748% | -9.53% | 2.74%
